# Hit rate of the full screen: of about 320,000 compounds, about 200 (0.062%) were called active. Inconclusive means that the source gave no clear call. Such entries were picked first, then a sample of the others. Calls come from the whole dose curve; as a rule, active = well fitted activation curve with a large enough effect; inconclusive = small, poorly fitted or top-dose-only effect; inactive = no such curve, though single readings can be large or run the other way. No potency is given beside an inconclusive call; the fits are too rough.
# Assay: qHTS assay for re-activators of p53 using a Luc reporter; note: nearly all actives have a fitted effect of over 45% in size
# Conditions: H1299 p53-A138V BP100-luciferase reporter, luminescence, 24 h; series mostly up to 92.2 µM
# Procedure, shortened: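 p53-null H1299 cells stably carrying temperature-sensitive p53-A138V and a BP100-luciferase reporter were pinned with compounds (4-point, 1:5 series) and held 24 hrs at 37 deg C. Luminescence was read 10 min after detection reagent.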
# Potency is the fitted concentration of half-maximal effect; tags give direction and shape of the fitted curve.
row,Structure (SMILES),Potency
1,CCOC(=O)C1CCN(c2ncnc3c2oc2ccccc23)CC1,"inconclusive [activator, single point]"
2,CC(=O)/C(=N\Nc1ccccc1)Oc1ccc([N+](=O)[O-])cc1,"inconclusive [activator, single point]"
3,CCCn1c(/C=N/Nc2nc3ccccc3[nH]2)nc2ccccc21,"inconclusive [activator, partial curve, poor fit]"
4,Cn1c(=O)[nH]c(=O)c2c1nc([N+](=O)[O-])n2Cc1ccccc1,inactive
5,C/C(=N\Nc1ccc2nncn2n1)c1ccccn1,"inconclusive [activator, partial curve, poor fit]"
6,Cc1ccccc1-c1nnc(SCc2ccccc2)o1,"inconclusive [activator, partial curve]"
7,CNS(=O)(=O)c1cccc(C(=O)OCC(=O)c2ccc3[nH]c(=O)[nH]c3c2)c1,inactive
8,COC(=O)c1ccc2c(=O)[nH]c(CN3c4ccccc4CC3C)nc2c1 (stereo unspecified),inactive
9,Cc1ccc(-c2cc(N)n(-c3ccc(F)cc3)n2)cc1,inactive
10,Cc1c(C(=O)NCC2CCCO2)oc2ccccc12 (stereo unspecified),"inconclusive [activator, full curve, poor fit]"
11,Oc1ccc2c(c1)oc1cc(O)ccc12,"inconclusive [activator, partial curve]"
12,CC(C)CCNC(=O)c1ccc(-c2ccccc2)cc1,inactive
13,O=C(N/N=C/c1cccc([N+](=O)[O-])c1O)c1cccs1,"inconclusive [activator, partial curve, poor fit]"
14,Cc1nc2c(C(=O)NCCC3=CCCCC3)c[nH]n2c(=O)c1Cl,"inconclusive [activator, single point]"
15,Cc1c(NC(=O)c2cc(-c3ccccc3)nc3ccccc23)c(=O)n(-c2ccccc2)n1C,inactive
16,CCc1ccc(NC(=O)C(=S)NC2CCCCC2)cc1,inactive
17,O=c1c(-c2cc3ccccc3o2)[n+]([O-])c2ccccc2n1OCc1ccccn1,"inconclusive [activator, partial curve, poor fit]"
18,O=C(Nc1ccc(N2CCN(Cc3ccccc3F)CC2)cc1)c1ccc([N+](=O)[O-])o1,inactive
19,O=C1CCCN1CCCN1CC(C(=O)N(CCO)Cc2ccccc2)CCC1=O (stereo unspecified),inactive
20,Cc1ccc(S(=O)(=O)Nc2ccc(Cl)cc2C(=O)c2ccc(F)cc2)cc1,"inconclusive [activator, single point]"
21,CC(C)Cn1c(/C=N/Nc2nc3ccccc3[nH]2)nc2ccccc21,"inconclusive [activator, partial curve, poor fit]"
22,c1cncc(CSc2nnc3ccc(-c4ccncc4)nn23)c1,"inconclusive [activator, single point]"
23,CC(=O)c1ccc(OCc2cc(C(=O)N3CC4C[C@@H]5CC3C[C@H](C4)C5)no2)cc1,"inconclusive [activator, full curve, poor fit]"

row,Structure (SMILES),Potency
1,O=C(Nc1ccccc1N1CCCCC1)c1ccc(Cl)cc1,"inconclusive [activator, partial curve, poor fit]"
2,CCNS(=O)(=O)c1ccc(CCC(N)=O)cc1,"inconclusive [activator, single point]"
3,COc1cc(/C=C/C(=O)Nc2ccc3nc4n(c(=O)c3c2)CCCC4)cc(OC)c1OC,inactive
4,Cc1ccc(-c2cn3c(n2)SCC3)cc1,"inconclusive [activator, partial curve, poor fit]"
5,O=C(CCCN1C(=O)/C(=C/c2cccs2)SC1=S)Nc1ccc(O)cc1,"inconclusive [activator, single point]"
6,O=C(/C=C/c1ccc(F)cc1)c1ccccc1Br,"inconclusive [activator, single point]"
7,CCN=c1scc(C)n1/N=C/c1ccsc1,"inconclusive [activator, partial curve, poor fit]"
8,CC(C)(C=O)C1=CC(=O)c2ccccc2C1=O,inactive
9,C[C@H](CO)N1C[C@H](C)[C@@H](CN(C)S(=O)(=O)c2cccs2)Oc2c(NC(=O)Cc3ccccc3)cccc2C1=O,inactive
10,COc1ccccc1NC(=O)Nc1ccnn1C1CCN(C(=O)c2cccnc2)CC1,inactive
11,Cc1ccc(NC(=O)c2ccoc2C)cc1C,"inconclusive [activator, full curve, poor fit]"
12,COc1ccc2nc3oc(C(=O)NC4CCN(Cc5ccccc5)CC4)cc3cc2c1,"inconclusive [activator, partial curve, poor fit]"
13,Cc1n[nH]c(=O)c2c(NC(=O)CSc3cc(Cl)ccc3Cl)oc(C)c12,"inconclusive [activator, single point]"
14,COc1ccccc1N1C(=O)Cc2ccccc2C1=O,inactive
15,N#Cc1cc2sc3nnc(-c4ccncc4)n3c2cc1C#N,"inconclusive [activator, single point]"
16,Brc1cccc(Cn2c(-c3cncs3)nc3ccccc32)c1,inactive
17,CC1CCCCC1NC(=O)c1ccc(S(=O)(=O)N2CCN(C)CC2)cc1 (stereo unspecified),"inconclusive [activator, partial curve, poor fit]"
18,COc1ccccc1NC(=O)CN1CCN(CC(=O)Nc2cc(C)ccc2OC)CC1,inactive
19,COC(=O)c1cc(COc2ccc3oc(C)c(C(=O)OC)c3c2)c(C)o1,inactive
20,Cc1ccc(CNC(=O)CN2C(=O)c3ccccc3S2(=O)=O)cc1,inactive
21,COc1cccc(NC(=O)CN(C)C(=O)CNC(=O)c2sc3ccccc3c2Cl)c1,"inconclusive [activator, partial curve, poor fit]"
22,COc1ccc2cc(C(=O)OC(C)C)sc(=O)c2c1OC,"inconclusive [activator, partial curve, poor fit]"
23,CC(=O)Nc1ccc(Oc2nc(-c3ccccn3)nc3ccccc23)cc1,inactive

# From PubChem BioAssay AID504706 (National Center for Advancing Translational Sciences (NCATS), 2011)
